# Measured values reported in the supplement of paper PMC3334620.
# The full ranking holds about 33,000 sequences; the median of “E-score (-0.5 to 0.5)” is about -0.032, and the highest 2% start at about 0.36. The list shows a part of the results.
# Target: T1, Sko1 (UniProt Q02100)
# T1 sequence: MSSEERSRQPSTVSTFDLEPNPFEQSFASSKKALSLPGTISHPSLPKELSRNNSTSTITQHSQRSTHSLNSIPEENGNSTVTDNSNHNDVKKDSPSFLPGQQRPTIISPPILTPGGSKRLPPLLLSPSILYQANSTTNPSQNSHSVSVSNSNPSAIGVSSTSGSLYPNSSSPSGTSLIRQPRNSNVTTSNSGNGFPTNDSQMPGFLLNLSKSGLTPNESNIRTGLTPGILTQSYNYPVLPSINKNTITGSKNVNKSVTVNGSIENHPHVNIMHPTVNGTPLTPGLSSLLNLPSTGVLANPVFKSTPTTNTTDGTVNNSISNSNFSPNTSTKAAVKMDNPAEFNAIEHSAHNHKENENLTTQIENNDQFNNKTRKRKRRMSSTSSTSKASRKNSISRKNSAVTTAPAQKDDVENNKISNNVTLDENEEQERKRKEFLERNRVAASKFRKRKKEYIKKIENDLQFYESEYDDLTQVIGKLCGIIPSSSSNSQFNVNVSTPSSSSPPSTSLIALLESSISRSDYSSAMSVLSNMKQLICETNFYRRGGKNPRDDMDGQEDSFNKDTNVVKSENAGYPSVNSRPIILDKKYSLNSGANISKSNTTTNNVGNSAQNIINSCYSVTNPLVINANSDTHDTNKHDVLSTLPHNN
# Test: PBM E-score (8-mer binding enrichment) (E-score (-0.5 to 0.5)); higher = stronger / more preferred TF binding; most listed sequences are background and not binding sites
# Settings: protein concentration: 200 nM; construct: GST-full length
# In short: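 Each ungapped eight-base word and its reverse complement, pooled, received an E-score from the Universal PBM Analysis Suite. Underlying scans, normalised with masliner, recorded fluorescent anti-GST bound to GST-tagged yeast transcription factors. These were applied at about 100-200 nM to universal all-10-mer Agilent arrays double-stranded by primer extension.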
row,Sequence,PBM E-score
1,CCCAGGTC,-0.258
2,ATTCTTAC,0.24
3,CCTGCGCC,-0.236
4,AAAACTCG,0.15
5,TCACTGAA,-0.00771
6,CATCTCTC,-0.0287
7,AAAACTGA,-0.0502
8,GATGGCAC,-0.165
9,AGTCTGAC,0.0257
10,GGTGGGTA,-0.177
11,CGCGACCA,-0.0344
12,CACGATTA,0.119
13,ATCCTTCG,-0.0893
14,CGTAGCGA,0.141
15,ACTCGAAT,-0.079
16,TCAGCGAA,-0.112
17,CAGCTTCA,-0.0163
18,AGATTATA,0.157
19,AAACACGA,0.163
20,ATTCTCCG,-0.0461
21,ATTTTGTA,0.152
22,CACACGAG,-0.191
23,CCGCAAGG,-0.232
24,ATTGCGGA,-0.0563
25,GAGTCCAC,-0.214

row,Sequence,PBM E-score
1,CTAACGCA,0.209
2,AAGACGCT,-0.168
3,TATGAACA,0.148
4,GCGAGGCA,-0.14
5,AAATGGAA,0.00883
6,ATTTAATA,0.247
7,AAGAAGCA,0.0475
8,GCGCTACC,-0.21
9,TTATCAAA,0.205
10,CGAGAAAA,0.024
11,CTAATCGC,0.00167
12,AGTAATAT,0.224
13,CTCAGACC,-0.126
14,GTGAGGTA,0.0525
15,CAGCCACC,-0.169
16,CAGGGCTC,-0.29
17,CACAAAAG,-0.0941
18,ATCGAGAC,-0.0154
19,AGCCATAT,-0.0111
20,ATCGTGCA,0.117
21,CAGGTTCA,-0.0788
22,CTGGACTA,-0.222
23,CGTGTGAA,0.0571
24,GCGATCTA,0.014
25,CCAAGGAG,-0.15

row,Sequence,PBM E-score
1,CTCTGGTC,-0.177
2,AAGGCAGA,-0.237
3,GTCTCCAC,-0.0502
4,CCCTATAA,-0.143
5,ACGTACTC,0.432
6,TCCATAAA,-0.0326
7,CGATCCTC,-0.0326
8,AGATAATC,0.0844
9,GATCCAGA,-0.00176
10,CAGCGATA,-0.154
11,AATGGTTA,0.0449
12,CCACGCCG,-0.292
13,AAGATTCA,0.0314
14,AAGACTAT,0.0616
15,CAGCCTAA,-0.0852
16,AAGGGACT,-0.253
17,GACACAGA,-0.0171
18,ACGGACAC,0.0624
19,CTCCTCGA,-0.103
20,CTTCGCGC,0.217
21,CAACACGG,-0.0807
22,CCAACTAC,-0.0348
23,CCATCGAG,0.0626
24,TATTAATA,0.0036
25,CCGCTCAG,-0.255

row,Sequence,PBM E-score
1,CAACATAC,0.137
2,GAGTGCGA,-0.168
3,CTTAAGCC,-0.03
4,CCCAACGC,0.0735
5,ACTTCACA,0.0677
6,CAGAGCAG,-0.127
7,ACAAGAAT,0.0785
8,AATTGTAC,0.173
9,ACGGCCCG,-0.139
10,ACTCTCTC,-0.281
11,ATGCGTTG,0.227
12,AGTATACA,0.0979
13,ACTGTTTG,0.0323
14,GACTTAAA,0.111
15,CTGGGAAC,-0.159
16,ACTTTGGA,0.111
17,GCATCCAC,0.0302
18,GGTTTAAC,-0.0299
19,ACTGTCCG,-0.0736
20,TACAACAA,0.134
21,CGCTGAGA,-0.0923
22,TGCGTACA,0.36
23,CTGTGGTA,-0.102
24,AACCTTAC,0.187
25,GCCAGAAA,-0.0522

row,Sequence,PBM E-score
1,CCATATAC,0.0864
2,CAGCAGTC,-0.247
3,ACACTTCT,-0.0233
4,AGGGCGGC,-0.324
5,ATTGATAG,0.119
6,CTATGAAA,0.0218
7,ATATAACA,0.177
8,GACACCTA,-0.0329
9,GTTCATAA,0.0324
10,AATCTACC,0.0629
11,GTCTGTTA,0.0537
12,GGGACCAC,-0.0246
13,AGGTACTG,-0.125
14,ACGGAGAT,-0.163
15,AAATTAAC,0.0269
16,AGCCGATG,-0.224
17,ATTAGACA,0.125
18,TTTCGAAA,0.124
19,CCTCGTTC,-0.161
20,TATTACGA,0.414
21,AATCCCAA,-0.134
22,ATCAAACA,0.102
23,ATATTGAT,0.218
24,CGGGGCCA,-0.238
25,CACACCTA,-0.0184

row,Sequence,PBM E-score
1,ACGCATAT,0.225
2,ACTGGCAT,-0.13
3,CAATTATG,0.159
4,CATGATAA,0.182
5,CGGCTCAG,-0.00571
6,TGTAGACA,0.16
7,ACGCATAG,0.102
8,CTCGGAAC,-0.0712
9,ATCGTGTA,0.0684
10,CTGTTCTA,-0.18
11,ACGCATCT,0.203
12,GCATGTCC,-0.216
13,CAGTCGCA,-0.125
14,ACCGAATC,-0.0827
15,ACAAGCGC,-0.257
16,CTGCCACC,-0.066
17,ATTTTTGA,0.208
18,AAGTGGTA,-0.0655
19,AAGAAATG,0.0342
20,CCTCACCA,-0.0409
21,AGGGCTCG,-0.162
22,ACCGAGGG,-0.402
23,CCCGGGTC,-0.204
24,CGGGTAAA,0.0643
25,AGCGCGGC,-0.21

row,Sequence,PBM E-score
1,CTACTCTA,0.161
2,ATTTGGTA,0.218
3,CGATTAAA,0.176
4,GATCTGAC,0.161
5,AGCGTTCC,-0.0745
6,CTATTGAG,0.0635
7,GATTAATC,-0.0808
8,CATCCTCG,-0.136
9,ATATTATG,0.276
10,GTCGCTAA,0.107
11,ATATGCAA,0.138
12,AACTATTA,0.17
13,CCAACGAG,-0.11
14,CTGGTCCC,-0.259
15,ACTTAATG,0.105
16,ATTATTTC,0.23
17,AGGCCGTG,-0.26
18,AAGTAATT,0.3
19,CACAACGC,0.133
20,CCTCCCAG,-0.256
21,GAATGCGA,0.0115
22,AGTAGCTA,0.107
